# Experimental data: a collection of fitness landscapes (doi:10.1016/j.celrep.2020.107928)
# The full ranking holds about 81,000 sequences; the median of “one-hybrid fitness for binding parS DNA” is about -0.17, and the highest 2% start at about 0.51. The list shows a part of the results.
# B1: Caulobacter ParB omega fusion; a variant is named by its letters at X, in order, B8GW30 (parent)
# chain: MESVVVGEPGMSEGRRGLGRGLSALLGEVDAAPAQAPGEQLGGSREAPIEILQRNPDQPRRTFREEDLEDLSNSIREKGVLQPILVRPSPDTAGEYQIVAGERAWRAAQRAGLKTVPIMVRELDDLAVLEIGIIENVQRADLNVLEEALSYKVLMEKFERTQENIAQTIGKSXSHVANXMRLLXLPDEVQSYLVSGELTAXHARAIAAAADPVALAKQIIEGGLSVRETEALARKAPNLSAGKSKGGRPPRVKDTDTQALESDLSSVLGLDVSIDHRGSTGTLTITYATLEQLDDLCNRLTRGI
# Variants of: B1
# Assay: one-hybrid fitness for binding parS DNA (scaled: cognate 1, non-cognate 0); higher = stronger binding
# Settings: with parS DNA site
# Procedure, shortened: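 In E. coli USO, a HIS3 reporter with its site placed 19 bp from the promoter was used to select Caulobacter ParB variants randomised at four specificity codons. Growth lasted 48 hours at 37°C on histidine-free M9 containing 0.1 mM IPTG and 5 mM 3-AT. Fitness was taken as the log change in variant-to-wild-type read ratio from Illumina sequencing of pre- and post-selection plasmids, rescaled between the non-cognate and cognate sites.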
row,Variant,one-hybrid fitness for binding parS DNA
1,GAHL,≤ 0.2
2,ILTD,≤ 0.2
3,LLET,≤ 0.2
4,LFHV,≤ 0.2
5,KPLV,≤ 0.2
6,SLAC,≤ 0.2
7,CIKR,≤ 0.2
8,NRKC,≤ 0.2
9,WISE,≤ 0.2
10,IPQM,≤ 0.2
11,LGAG,≤ 0.2
12,TPTR,≤ 0.2
13,LMDY,≤ 0.2
14,TPWR,≤ 0.2
15,RYAG,0.982
16,MHQT,≤ 0.2
17,RYMD,≤ 0.2
18,YSES,≤ 0.2
19,RDSR,≤ 0.2
20,HRHN,≤ 0.2
21,YPTF,≤ 0.2
22,PEMA,≤ 0.2
23,QRYE,≤ 0.2
24,LGAF,≤ 0.2
25,ISGT,≤ 0.2

row,Variant,one-hybrid fitness for binding parS DNA
1,LLGY,≤ 0.2
2,CTWR,≤ 0.2
3,SQNK,≤ 0.2
4,RDWV,≤ 0.2
5,PTTI,≤ 0.2
6,QNAE,≤ 0.2
7,QSKS,≤ 0.2
8,SHQG,≤ 0.2
9,RPPP,≤ 0.2
10,RNMP,≤ 0.2
11,PIRR,≤ 0.2
12,GDTV,≤ 0.2
13,RIFT,0.834
14,VSWW,≤ 0.2
15,YLQS,≤ 0.2
16,FVPS,≤ 0.2
17,NGMC,≤ 0.2
18,FFNC,≤ 0.2
19,RRQV,≤ 0.2
20,IVSG,0.263
21,MAQV,≤ 0.2
22,SMFG,≤ 0.2
23,KGIW,≤ 0.2
24,FWAS,≤ 0.2
25,WSTK,≤ 0.2

row,Variant,one-hybrid fitness for binding parS DNA
1,LTRK,≤ 0.2
2,HWPM,≤ 0.2
3,MLST,≤ 0.2
4,RTID,0.203
5,IAQG,≤ 0.2
6,AEPQ,≤ 0.2
7,RQCM,0.349
8,QQID,≤ 0.2
9,TAQA,≤ 0.2
10,VAKV,≤ 0.2
11,NWNT,≤ 0.2
12,VSRG,≤ 0.2
13,SWTC,≤ 0.2
14,AYHL,≤ 0.2
15,GNKQ,≤ 0.2
16,ECAA,≤ 0.2
17,KRWC,≤ 0.2
18,CLHV,≤ 0.2
19,GKVN,≤ 0.2
20,NNTF,≤ 0.2
21,WLKT,≤ 0.2
22,GHHP,≤ 0.2
23,SYHH,≤ 0.2
24,AGIR,≤ 0.2
25,CLRF,≤ 0.2

row,Variant,one-hybrid fitness for binding parS DNA
1,QYRI,≤ 0.2
2,FVCS,≤ 0.2
3,GQCW,≤ 0.2
4,CVKC,≤ 0.2
5,QRFQ,≤ 0.2
6,CIEC,≤ 0.2
7,FDYV,≤ 0.2
8,HEHG,≤ 0.2
9,YGSA,≤ 0.2
10,RALL,≤ 0.2
11,RVEE,≤ 0.2
12,QGMS,≤ 0.2
13,RPRP,≤ 0.2
14,LIFR,≤ 0.2
15,YRRP,≤ 0.2
16,QEEC,≤ 0.2
17,WNGT,≤ 0.2
18,YVKY,≤ 0.2
19,RNTC,0.865
20,AAVE,≤ 0.2
21,NTLV,≤ 0.2
22,CDST,≤ 0.2
